# Assay results from PubChem BioAssay (NCATS).
# Several values for one entry are separate records, joined by “and”; a condition that tells them apart may be missing. Identical values can stand only once. For part of these data: What follows is the remainder of the data, with few or none of the hits. Inconclusive results are not listed. Only a part is listed here, and it is no random draw. Activity calls are given as the source filed them. Unless noted, the call rests on the fitted dose curve; in most records, active means well fitted curve in the direction sought with a large enough effect; inconclusive means small, poorly fitted or top-dose-only effect, or another doubt; inactive means no such curve, though single readings can be large; an effect the other way counts as inactive or inconclusive.
# Assays:
# [1] = target: Cytochrome P450 1A2 (Homo sapiens) (UniProt P05177); assay: p450-cyp1a2 (AID 410; calls by dose curve; further: potency means the concentration at half of the fitted maximal effect;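 on activity change, negative = inhibition: top concentration of the series differs between compounds; -100% = full effect of reference inhibitor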)
# In short: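 20nM CYP1A2, 100uM Luciferin-ME (=Km), 100mM KPO4; cpd 10 min RT; +NADPH regen, 60 min RT; stop/detect 20 min; luminescence. Normalized to furafylline 57 uM = full inhibition.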
# [2] = target: Cytochrome P450 2C9 (Homo sapiens) (UniProt P11712); assay: qHTS Assay for Inhibitors and Substrates of Cytochrome P450 2C9 (AID 883); further: nearly all actives have a fitted effect of over 60% in size; further: potency means the concentration at half of the fitted maximal effect; on activity change, negative = inhibition: on the % scale 0 is the no-effect control and ±100 the full control effect
# In short: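 Luminescent read-out of deoxyluciferin hydroxylation, normalized to 57uM sulphaphenazole (AC100). Reaction: 10nM enzyme, 100uM Luciferin-H (equal to KM), 25mM KPO4, 10 min compound preincubation, then 60 min with NADPH regeneration, both at 37C.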
# [3] = target: Glucocorticoid receptor (Homo sapiens) (UniProt P04150); assay: GR-GFP Redistribution (AID 450;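 active means compounds whose dose series gives a full or clear partial fitted curve of increased nuclear translocation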; further: potency means the concentration at half of the fitted maximal effect); details: U2OS GR-GFP nuclear translocation, laser cytometry, 2 h
# [4] = target: Glucocorticoid receptor (Homo sapiens) (UniProt P04150); assay: GR-EFC Redistribution (AID 451; calls by dose curve); details: CHO-K1 GR-EFC translocation, beta-gal luminescence, 2 h
# In short: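 Translocation of GR-ED fusion to nuclear EA restores b-gal, read by luminescence after 1 h room-temperature detection. Engineered CHO-K1 biosensor cells, 1,000/well, exposed 2 h at 37 C to titrations up to 46 uM final.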
# [5] = target: Tyrosine-protein kinase Yes (Homo sapiens) (UniProt P07947); assay: qHTS for small molecule inhibitors of Yes1 kinase: Primary Screen (AID 686947); details: Yes1 kinase biochemical qHTS inhibition; further: potency means the concentration at half of the fitted maximal effect; nearly all actives have a fitted effect of over 60% in size
# In short: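 In this qHTS format, inhibition is expressed relative to DMSO controls with enzyme (maximum) and without enzyme (minimum). The 60 min room-temperature reaction uses 0.1 mM ATP, with ADP detected by luminescence.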
# [6] = target: Voltage-gated inwardly rectifying potassium channel KCNH2 (Homo sapiens) (UniProt Q12809); assay: qHTS Assay for Small Molecule Inhibitors of the Human hERG Channel Activity (AID 588834);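 further: potency means the concentration at half of the fitted maximal effect; lower thallium flux fluorescence means stronger hERG block; nearly all actives have a fitted effect of over 50% in size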
# In short: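 Cells were infected with hERG-BacMam virus for 4 hrs at room temperature, grown overnight, then seeded at 2000/well. After dye loading and roughly 10 min compound treatment, thallium influx was triggered and fluorescence recorded.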
# [7] = target: Cytochrome P450 2D6 (Homo sapiens) (UniProt P10635); assay: Cytochrome P450 family 2 subfamily D member 6 (CYP2D6) small molecule antagonists: luciferase biochemical (cell-free) qHTS assay (AID 1645840; active means well fitted curve in the direction sought with a large enough effect in the repeat runs; an effect the other way counts as inactive or inconclusive; further: potency means the concentration at half of the fitted maximal effect; nearly all actives have a fitted effect of over 55% in size); details: P450-Glo CYP2D6 enzyme, luciferin luminescence, 1 h
# In short: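 P450-Glo CYP2D6 system: proluciferin substrate converted by enzyme to luciferin, read by luminescence proportional to activity. Enzyme-substrate mix with compound 10 min at room temperature, then NADPH regeneration 1 h before detection reagent.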
# [8] = target: Cytochrome P450 3A4 (Homo sapiens) (UniProt P08684); assay: qHTS Assay for Inhibitors and Substrates of Cytochrome P450 3A4 (AID 884); details: recombinant CYP3A4, Luciferin-PPXE luminescence; at 57.1 µM (top of the series); further: on the % scale 0 is the no-effect control and ±100 the full control effect; nearly all actives have a fitted effect of over 50% in size
# In short: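 Luminescent readout of luciferin produced by CYP3A4 (20 nM) dealkylation of Luciferin-PPXE, 25 uM (its KM). NADPH-driven reaction ran 60 min at RT after 10 min compound preincubation; data scaled to 57 uM ketoconazole as 100% inhibition.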
# [9] = HTS Assay for Allosteric Antagonists of the Human D2 Dopamine Receptor: Hit Validation in HTRF (AID 624455); details: Cells stably expressing D1 dopamine receptor, inhibition mode; at 46.1 µM (top of the series)
# In short: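 HTRF read-out; cells stably expressing D1 receptor; hits scored for inhibition of D1-mediated response. Primary screen: calcium flux, force-coupled inducible Hek293 Trex D2 line, antagonism vs EC80 dopamine.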
# [10] = target: Cytochrome P450 2D6 (Homo sapiens) (UniProt P10635); assay: qHTS Assay for Inhibitors and Substrates of Cytochrome P450 2D6 (AID 891); details: recombinant CYP2D6, luciferin-ME EGE luminescence; at 57.1 µM (top of the series);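 further: luciferin methyl ether substrate demethylated by CYP2D6 with NADPH regeneration; top concentration of the series differs between compounds; on the % scale 0 is the no-effect control and ±100 the full control effect; nearly all actives have a fitted effect of over 60% in size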
# In short: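 Luminescent read-out of luciferin formed by 5 nM human CYP2D6 demethylating 30 uM Luciferin-ME EGE (Km level) over 60 min at room temperature after NADPH regeneration addition. Data normalized to full inhibition by 1.43 uM quinidine.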
# [11] = S16 Schwann cell viability assay (CellTiter-Glo assay) (AID 624031); details: S16 rat Schwann cells viability, 24 h; at 57.5 µM (top of the series)
# In short: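 Counter-screen for cytotoxicity: parental S16 rat Schwann cells lacking the PMP22 reporters, treated 24 h with compound, viability from cellular ATP by CellTiter-Glo luminescence, normalized to DMSO (0%) and no-cell wells.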
# [12] = S16 Schwann cell PMP22 intronic element firefly luciferase assay (AID 624032); details: S16 rat Schwann cells, PMP22 element FLuc, 24 h; at 57.5 µM (top of the series)
# In short: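 Luciferase reporter of PMP22 intronic-element expression in stably transfected S16 rat Schwann cells, read by ONE-Glo luminescence after 24 h compound exposure at 37 C. Activity scaled between DMSO (0%) and positive-control PTC124; concentration-effect curves quality-classified.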
smiles,measurement,setting,value
Clc1ccc(CS[C@@H](Cn2ccnc2)c2ccc(Cl)cc2Cl)cc1,Potency,[1],active: 0.2 µM
same,Potency,[2],active: 20 nM
C[C@H]1C[C@H]2[C@H]3CCC4=CC(=O)C=C[C@@]4(C)[C@]3(F)[C@H](O)C[C@]2(C)[C@@]1(O)C(=O)COP(=O)(O)O,Potency,[3],active: 0.046 µM
same,Potency,[4],active: 3.16 µM
Fc1ccc(-c2ncn(C3CCNCC3)c2-c2ccnc(Oc3ccc(Cl)cc3)n2)cc1,Potency,[5],active: 13 µM
CCN(Cc1ccncc1)C(=O)[C@@H](CO)c1ccccc1,Potency,[2],active: 12.6 µM and active: 3.98 µM and active: 794 nM
C[C@@H]1C[C@H]2[C@@H]3CCC4=CC(=O)C=C[C@]4(C)[C@@]3(F)[C@@H](O)C[C@]2(C)[C@@]1(O)C(=O)COP(=O)(O)O,Potency,[3],active: 0.0153 µM
Cc1ccccc1C(OCCN(C)C)c1ccccc1 (stereo not drawn),Potency,[6],active: 15.8 µM and active: 8.91 µM
CC(C)(C)c1ccc(Oc2nccc(-c3c(-c4ccc(F)cc4)ncn3C3CCNCC3)n2)cc1,Potency,[5],active: 5.82 µM
CC(C)(C)c1ccc(C(=O)CCCN2CCC(OC(c3ccccc3)c3ccccc3)CC2)cc1,Potency,[7],active: 13.8 µM
CN1C2CCC1CC(OC(=O)C(O)c1ccccc1)C2 (stereo not drawn),"activity change, negative = inhibition",[8],inactive: -4.87%
same,"activity, negative = inhibition",[9],inactive: -3.22%
O=C1NC(=O)C(c2cccc([N+](=O)[O-])c2)=C1Nc1cc(Cl)c(O)c(Cl)c1,Potency,[5],active: 29.2 µM
CN1[C@@H]2CC[C@H]1CC(OC(=O)[C@@H](O)c1ccccc1)C2 (stereo partly drawn),Potency,[1],inactive
same,Potency,[2],inactive
same,"activity change, negative = inhibition",[10],inactive: 5.19%
same,"activity change, negative = cytotoxicity",[11],inactive: -29.1%
same,"activity change, negative = inhibition",[12],inactive: 19.9%
